# Measurements from the supplement of paper PMC8728848.
# The other results are listed elsewhere or left out.
# B1: Gal 8 (Homo sapiens), O00214 (protein)
# chain: MMLSLNNLQNIIYNPVIPFVGTIPDQLDPGTLIVIRGHVPSDADRFQVDLQNGSSMKPRADVAFHFNPRFKRAGCIVCNTLINEKWGREEITYDTPFKREKSFEIVIMVKDKFQVAVNGKHTLLYGHRIGPEKIDTLGIYGKVNIHSIGFSFSSDLQSTQASSLELTEISRENVPKSGTPQLPSNRGGDISKIAPRTVYTKSKDSTVNHTLTCTKIPPMNYVSKRLPFAARLNTPMGPGRTVVVKGEVNANAKSFNVDLLAGKSKDIALHLNPRLNIKAFVRNSFLQESWGEEERNITSFPFSPGMYFEMIIYCDVREFKVAVNGVHSLEYKHRFKELSSIDTLEINGDIHLLEVRSW
# Key:
# Test in all cases: glycan array binding signal (z-score within array); higher = stronger binding
# Settings in all cases: glycan notation: IUPAC condensed, linker removed
# [1] = biological target: Neu5Ac(a2-6)Gal(b1-4)GlcNAc(b1-2)Man(a1-3)[Gal(b1-4)GlcNAc(b1-2)Man(a1-6)]Man(b1-4)GlcNAc(b1-4)GlcNAc
# Method in brief: (§1)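 The binding signal is a Z-score computed within each array and averaged over linkers. Arrays of the same protein sequence at different concentrations or buffers were also averaged together. Data originate from 3228 arrays in the Consortium for Functional Glycomics database, kept only where the protein sequence was available.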
# [2] = biological target: Neu5Ac(a2-6)Gal(b1-4)GlcNAc(b1-2)Man(a1-3)[GlcNAc(b1-2)Man(a1-6)]Man(b1-4)GlcNAc(b1-4)GlcNAc
# Method in brief: as §1
# [3] = biological target: Neu5Ac(a2-6)Gal(b1-4)GlcNAc(b1-2)Man(a1-3)[GlcNAc(b1-2)Man(b1-4)GlcNAc(b1-2)Man(a1-6)]Man(b1-4)GlcNAc(b1-4)GlcNAc
# Method in brief: as §1
# [4] = biological target: Neu5Ac(a2-6)Gal(b1-4)GlcNAc(b1-2)Man(a1-3)[Neu5Ac(a2-6)Gal(b1-4)GlcNAc(b1-2)Man(a1-6)]Man(b1-4)GlcNAc(b1-4)GlcNAc
# Method in brief: as §1
# [5] = biological target: Neu5Ac(a2-6)Gal(b1-4)GlcNAc(b1-2)Man(a1-6)[Gal(b1-4)GlcNAc(b1-2)Man(a1-3)]Man(b1-4)GlcNAc(b1-4)GlcNAc
# Method in brief: as §1
# [6] = biological target: Neu5Ac(a2-6)Gal(b1-4)GlcNAc(b1-2)Man(a1-6)[GlcNAc(b1-2)Man(a1-3)]Man(b1-4)GlcNAc(b1-4)GlcNAc
# Method in brief: as §1
# [7] = biological target: Neu5Ac(a2-6)Gal(b1-4)GlcNAc(b1-3)Gal(b1-4)GlcNAc
# Method in brief: as §1
# [8] = biological target: Neu5Ac(a2-6)Gal(b1-4)GlcNAc(b1-3)Gal(b1-4)[Fuc(a1-3)]GlcNAc(b1-3)Gal(b1-4)[Fuc(a1-3)]GlcNAc
# Method in brief: as §1
# [9] = biological target: Neu5Ac(a2-6)Gal(b1-4)GlcNAc6S
# Method in brief: as §1
# Neu5Ac(a2-6)GalNAc = biological target: Neu5Ac(a2-6)GalNAc
# Method in brief: as §1
# [10] = biological target: Neu5Ac(a2-6)GalNAc(b1-4)GlcNAc
# Method in brief: as §1
# Neu5Ac(a2-8)Neu5Ac = biological target: Neu5Ac(a2-8)Neu5Ac
# Method in brief: as §1
# [11] = biological target: Neu5Ac(a2-8)Neu5Ac(a2-3)Gal(b1-4)Glc
# Method in brief: as §1
# [12] = biological target: Neu5Ac(a2-8)Neu5Ac(a2-3)[GalNAc(b1-4)]Gal(b1-4)Glc
# Method in brief: as §1
# [13] = biological target: Neu5Ac(a2-8)Neu5Ac(a2-8)Neu5Ac
# Method in brief: as §1
# [14] = biological target: Neu5Ac(a2-8)Neu5Ac(a2-8)Neu5Ac(a2-3)Gal(b1-4)Glc
# Method in brief: as §1
# [15] = biological target: Neu5Ac(a2-8)Neu5Ac(a2-8)Neu5Ac(a2-3)[GalNAc(b1-4)]Gal(b1-4)Glc
# Method in brief: as §1
# [16] = biological target: Neu5Ac(a2-8)Neu5Ac(a2-8)Neu5Ac(a2-8)Neu5Ac(a2-3)[GalNAc(b1-4)]Gal(b1-4)Glc
# Method in brief: as §1
# [17] = biological target: Neu5Ac(b2-6)Gal(b1-4)GlcNAc
# Method in brief: as §1
# Neu5Ac(b2-6)GalNAc = biological target: Neu5Ac(b2-6)GalNAc
# Method in brief: as §1
# [18] = biological target: Neu5Ac9Ac(a2-6)Gal(b1-4)GlcNAc
# Method in brief: as §1
# [19] = biological target: Neu5Gc(a2-3)Gal(b1-3)GlcNAc
# Method in brief: as §1
# [20] = biological target: Neu5Gc(a2-3)Gal(b1-3)[Fuc(a1-4)]GlcNAc
# Method in brief: as §1
# Neu5Gc(a2-3)Gal(b1-4)Glc = biological target: Neu5Gc(a2-3)Gal(b1-4)Glc
# Method in brief: as §1
# [21] = biological target: Neu5Gc(a2-3)Gal(b1-4)GlcNAc
# Method in brief: as §1
# [22] = biological target: Neu5Gc(a2-3)Gal(b1-4)[Fuc(a1-3)]GlcNAc
# Method in brief: as §1
# [23] = biological target: Neu5Gc(a2-6)Gal(b1-4)GlcNAc
# Method in brief: as §1
# Neu5Gc(a2-6)GalNAc = biological target: Neu5Gc(a2-6)GalNAc
# Method in brief: as §1
# [24] = biological target: Neu5Gc(b2-6)Gal(b1-4)GlcNAc
# Method in brief: as §1
binder,measurement,setting,value
B1,glycan array binding signal (z-score),[1],0.187
same,glycan array binding signal (z-score),[2],-0.45
same,glycan array binding signal (z-score),[3],-0.405
same,glycan array binding signal (z-score),[4],-0.421
same,glycan array binding signal (z-score),[5],-0.001
same,glycan array binding signal (z-score),[6],-0.442
same,glycan array binding signal (z-score),[7],0.936
same,glycan array binding signal (z-score),[8],-0.365
same,glycan array binding signal (z-score),[9],-0.432
same,glycan array binding signal (z-score),Neu5Ac(a2-6)GalNAc,-0.443
same,glycan array binding signal (z-score),[10],-0.432
same,glycan array binding signal (z-score),Neu5Ac(a2-8)Neu5Ac,-0.419
same,glycan array binding signal (z-score),[11],0.767
same,glycan array binding signal (z-score),[12],-0.427
same,glycan array binding signal (z-score),[13],-0.438
same,glycan array binding signal (z-score),[14],0.518
same,glycan array binding signal (z-score),[15],-0.415
same,glycan array binding signal (z-score),[16],-0.414
same,glycan array binding signal (z-score),[17],-0.42
same,glycan array binding signal (z-score),Neu5Ac(b2-6)GalNAc,-0.406
same,glycan array binding signal (z-score),[18],-0.454
same,glycan array binding signal (z-score),[19],0.37
same,glycan array binding signal (z-score),[20],-0.41
same,glycan array binding signal (z-score),Neu5Gc(a2-3)Gal(b1-4)Glc,0.213
same,glycan array binding signal (z-score),[21],-0.386
same,glycan array binding signal (z-score),[22],-0.423
same,glycan array binding signal (z-score),[23],-0.444
same,glycan array binding signal (z-score),Neu5Gc(a2-6)GalNAc,-0.439
same,glycan array binding signal (z-score),[24],-0.452
